Laboratory results reported in the supplement of paper PMC7266297.
The other results are listed elsewhere or left out. Single values are uncertain, as repeats are few or missing.
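Further: Read-out is SRB optical density at 490 nm, with the control being wells given 0.5% DMSO vehicle, and compound added one day after cells were plated.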

The molecules below were run on KB-V1 (assay: growth inhibition relative to DMSO control (SRB); cervical cancer cells: KB-3-1 is the parent and KB-V1 overexpresses MDR1; SRB is the sulforhodamine B stain; higher = more growth inhibition). Conditions: 1 µM; 72 h.
With C[C@]12CC[C@@H]3c4ccc(O)cc4CC[C@H]3[C@@H]1C[C@@H](O)[C@@H]2O [Estriol] the growth inhibition was 6.72%.
FC(F)c1nc2ccccc2n1-c1nc(N2CCOCC2)nc(N2CCOCC2)n1 was tested, and the growth inhibition was 78.4%.
COc1ccccc1N1CCN(CC(O)COc2cccc3ccccc23)CC1 (stereo not drawn) [Naftopidil] was tested, and the growth inhibition was 25.2%.
Molecule FC(F)(F)c1ccc(/C=C/c2nc(COc3ccc(CCCCn4ccnn4)cc3)co2)cc1 [Mubritinib (TAK 165)] has a growth inhibition of 62.6%.
For CS(=O)(=O)CCNCc1ccc(-c2ccc3ncnc(Nc4ccc(OCc5cccc(F)c5)c(Cl)c4)c3c2)o1, the growth inhibition was 49.4%.
Cc1cc([C@@H](C)Nc2ccccc2C(=O)O)c2nc(N3CCOCC3)cc(=O)n2c1 was tested, and the growth inhibition was 17.2%.
CCCCN(Cc1ccc(C(=O)NO)cc1)C(=O)Nc1ccccc1 [Nexturastat A] showed a growth inhibition of 8.02%.
Cc1cc(C(=O)NOCCO)c(Nc2ccc(I)cc2F)n(C)c1=O gave a growth inhibition of 43.9%.
